# Results reported in article PMC4336329 (PLoS ONE, 2015).
# In all, about 310,000 compounds went through this assay and about 14,000 (4.5%) showed an effect of 50% or more. The effect is printed as a negative number. The list shows a part of the results.
# Molecular target: human ether-à-go-go-related gene (hERG) potassium channel (human, UniProt Q12809)
# Test: primary screen, population patch clamp on CHO cells stably expressing hERG
# 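Further: peak tail current of the secondary pulse compared with the same well before compound.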
# human ether-à-go-go-related gene (hERG) potassium channel, sequence (Q12809 whole entry, looked up): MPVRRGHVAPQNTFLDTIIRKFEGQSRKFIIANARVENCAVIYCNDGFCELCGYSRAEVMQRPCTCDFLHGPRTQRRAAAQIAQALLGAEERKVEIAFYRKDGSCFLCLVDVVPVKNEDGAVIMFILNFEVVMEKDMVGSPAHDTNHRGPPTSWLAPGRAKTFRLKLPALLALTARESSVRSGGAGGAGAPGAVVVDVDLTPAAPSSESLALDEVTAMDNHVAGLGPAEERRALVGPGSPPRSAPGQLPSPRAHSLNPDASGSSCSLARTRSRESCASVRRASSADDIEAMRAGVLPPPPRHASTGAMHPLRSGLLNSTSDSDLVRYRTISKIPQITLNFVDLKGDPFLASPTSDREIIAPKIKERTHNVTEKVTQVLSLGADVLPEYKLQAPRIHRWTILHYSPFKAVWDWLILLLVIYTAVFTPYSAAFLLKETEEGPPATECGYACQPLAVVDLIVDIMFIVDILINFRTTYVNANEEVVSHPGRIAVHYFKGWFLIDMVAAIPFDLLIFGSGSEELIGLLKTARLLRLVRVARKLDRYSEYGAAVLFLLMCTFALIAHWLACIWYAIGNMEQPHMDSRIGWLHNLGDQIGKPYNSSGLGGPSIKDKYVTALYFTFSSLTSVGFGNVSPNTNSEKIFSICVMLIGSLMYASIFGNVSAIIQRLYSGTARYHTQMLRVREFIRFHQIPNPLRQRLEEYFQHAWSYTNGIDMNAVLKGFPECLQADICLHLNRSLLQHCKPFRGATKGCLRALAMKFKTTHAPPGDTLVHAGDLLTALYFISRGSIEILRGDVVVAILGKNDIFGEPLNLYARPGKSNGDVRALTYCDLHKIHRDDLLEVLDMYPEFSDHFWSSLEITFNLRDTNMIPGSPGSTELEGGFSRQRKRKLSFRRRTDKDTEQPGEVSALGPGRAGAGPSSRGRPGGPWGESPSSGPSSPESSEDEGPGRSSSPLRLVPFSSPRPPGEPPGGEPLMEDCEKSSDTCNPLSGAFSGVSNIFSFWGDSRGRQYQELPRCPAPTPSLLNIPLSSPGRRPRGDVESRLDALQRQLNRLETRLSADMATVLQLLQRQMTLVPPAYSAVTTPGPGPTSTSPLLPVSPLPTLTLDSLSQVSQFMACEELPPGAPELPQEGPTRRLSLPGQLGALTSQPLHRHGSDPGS
row,Compound,"hERG current change (%, negative = inhibition) at 10uM [%]"
1,CCc1cc2ccccc2nc1SCC(=O)Nc1cc(OC)c(OC)cc1C(=O)O,-2.33
2,COc1cc(NC(=O)C(=O)NCCN2CCNCC2)c(OC)cc1Cl,12
3,C=CCn1c(=O)c2ccccc2n2c(SCC(C)=O)nnc12,-7.97
4,O=C(CN1CCN(CN2C(=O)NC3(CCCCCC3)C2=O)CC1)Nc1cccc(F)c1,8.88
5,COc1ccc2c(C)c(CCC(=O)N3C[C@H]4C[C@@H](C3)c3cccc(=O)n3C4)c(=O)oc2c1,-34.9
6,CCN(CC)S(=O)(=O)c1cccc(NC(=O)COC(=O)C2COc3ccccc3O2)c1 (centres unmarked),-2.71
7,COc1nnc(-c2ccc(C)c(S(=O)(=O)NCCO)c2)c2ccccc12,-14.6
8,CCn1c(O)c(C2=NCCCC2)c2ccccc21,0.0486
9,COc1ccc(OC)c2c1sc(=NC(=O)C1COc3ccccc3O1)n2C (centres unmarked),-0.698
10,CCOc1ccc(C2C(C#N)=C(N)SC(N)=C2C#N)cc1OCC,13.5
11,O=C(NC(=O)N1CCCCCC1)c1ccc(Cl)cc1,0.216
12,O=C(Nc1ccc(S(=O)(=O)N2CCCCC2)cc1)C1CC(=O)N(c2ccccc2)C1 (centres unmarked),20.8
13,O=C(NCCc1c[nH]c2ccccc12)C(=O)NCC(c1ccco1)N1CCN(c2ccccc2)CC1 (centres unmarked),-12.4
14,Cc1cc(OC(C)C)nc(-c2ccccc2O)n1,-1.33
15,COCCN(C(=O)CSc1nnc2cc(C)c3ccccc3n12)c1c(N)n(Cc2ccccc2)c(=O)[nH]c1=O,7.09
16,CCOC(=O)C1=C(N)Oc2cc(O)ccc2C1c1ccc([N+](=O)[O-])cc1 (centres unmarked),-45.5
17,CCn1cc(C(=O)Nc2cccc(C(=O)OC)c2)c(=O)c2ccc(C)nc21,-2.32
18,COc1ccc(OCC(=O)NNC(=O)c2cccnc2)cc1,15.4
19,O=C(C[n+]1cccc(C(=O)Nc2ccccc2)c1)c1ccc([N+](=O)[O-])cc1.[Br-],-73.1
20,Cc1ccccc1-c1cc(C(=O)NCc2cccs2)nn1CC1CC(c2cccc([N+](=O)[O-])c2)=NO1 (centres unmarked),4.08
21,COc1cccc(CN(C(=O)Cc2c[nH]c3ccccc23)C(C(=O)NC2CCCCC2)c2ccc(C)o2)c1 (centres unmarked),1.18
22,CCOc1ccc(OCC)c(NC(=O)CN(c2ccc(C)cc2)S(=O)(=O)c2c(C)noc2C)c1,3.31

row,Compound,"hERG current change (%, negative = inhibition) at 10uM [%]"
1,CCOc1ccc(C(=O)OCC(=O)N2CCCC2)cc1,15.7
2,S=c1[nH]c(-c2ccccc2)cn1/N=C/c1ccccc1Br,13.9
3,Cc1ccc(-c2nc(CSCC(=O)NCCCN3CCOCC3)c(C)o2)cc1,14.1
4,Cc1cc(C)n(-c2ccc(C(=O)NCC(c3ccco3)N3CCCC3)cc2)n1 (centres unmarked),-5.9
5,Cc1cc2cc(CCNC(=O)CCc3ccccc3)c(=O)[nH]c2cc1C,-1.76
6,Cc1nc2sc(C#N)c(N)c2c2c1CCCC2,-5.25
7,Cc1nnc(SCC(=O)Nc2ccc(Cl)cn2)[nH]c1=O,11.3
8,COc1c(Cl)cc(Cl)cc1C(=O)Nc1ccc(CN2CCOCC2)cc1,8.37
9,O=C(c1cc(Sc2ccc(Cl)cc2)nc2ccccc12)N1CCN(c2ccccn2)CC1,7.61
10,C/C(=N/NC(=O)c1ccncc1)c1cc2ccc(O)cc2oc1=O,13.2
11,O=C1CC(N2CCSCC2)C(=O)N1CCc1ccccc1 (centres unmarked),-1.37
12,CCn1c(SCc2nc3ccccc3[nH]2)nnc1-c1ccncc1,3.99
13,COCC(=O)N1CCCC(C(=O)c2ccc3c4c(cccc24)CC3)C1 (centres unmarked),-21.2
14,O=C(O)CSc1nnc(-c2ccc(Cl)cc2)n1-c1ccccc1,22.6
15,CCOC(=O)N1CCN(C(=O)c2ccc(-n3c(C)ccc3C)cc2)CC1,-2.56
16,Nc1cc(=O)[nH]c(SCC(=O)N2N=C(c3ccc4ccccc4c3)CC2c2ccccc2)n1 (centres unmarked),5.9
17,Cc1nn(C)cc1C(=O)NNC(=S)Nc1ccc(Cl)cc1,12.6
18,COc1cc(NC(=O)CNc2cccc(S(=O)(=O)N3CCCC3)c2)cc(OC)c1,5.86
19,Cc1c(Cl)cccc1NC(=O)Nn1cnnc1,19.6
20,COc1ccc(OC)c(-n2nnnc2SCC(=O)O)c1,8.49
21,CCn1cc(C(=O)NC(=S)Nc2ccccc2Br)cn1,3.21
22,O=C(CCCOc1ccc(Cl)cc1Cl)NCc1ccncc1,-31.9
